# Experimental data from the supplement of paper PMC3334620.
# The full ranking holds about 33,000 sequences; the median of “E-score (-0.5 to 0.5)” is about -0.035, and the highest 2% start at about 0.34. Some of the results follow.
# Target: T1, Mot3 (UniProt P54785)
# T1 sequence: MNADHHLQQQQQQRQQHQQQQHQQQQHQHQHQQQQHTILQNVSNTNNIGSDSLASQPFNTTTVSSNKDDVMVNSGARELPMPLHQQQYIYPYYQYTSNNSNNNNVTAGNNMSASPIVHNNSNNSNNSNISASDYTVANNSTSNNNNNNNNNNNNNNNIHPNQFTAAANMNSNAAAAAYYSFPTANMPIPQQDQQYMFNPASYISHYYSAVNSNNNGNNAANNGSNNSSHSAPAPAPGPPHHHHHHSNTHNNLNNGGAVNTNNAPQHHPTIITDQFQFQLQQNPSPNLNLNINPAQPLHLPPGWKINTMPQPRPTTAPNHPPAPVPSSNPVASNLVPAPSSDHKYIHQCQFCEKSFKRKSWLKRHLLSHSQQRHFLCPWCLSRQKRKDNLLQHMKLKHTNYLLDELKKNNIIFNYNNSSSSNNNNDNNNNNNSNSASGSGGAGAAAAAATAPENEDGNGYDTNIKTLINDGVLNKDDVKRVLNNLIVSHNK
# Experiment: PBM E-score (8-mer binding enrichment) (E-score (-0.5 to 0.5)); higher = stronger / more preferred TF binding; most listed sequences are background and not binding sites
# Details: protein concentration: 200 nM; construct: GST-full length
# Outline: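 Full-length yeast transcription factors or their DNA-binding domains, GST-tagged and expressed with PURExpress, were applied at about 100-200 nM to universal all-10-mer Agilent arrays. These arrays had been made double-stranded by primer extension on fresh or once-stripped slides. Detection used fluorescent anti-GST, normalisation used masliner, and E-scores for ungapped eight-base words pooled with reverse complements came from the Universal PBM Analysis Suite.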
row,Sequence,PBM E-score
1,ATTACAGC,0.127
2,ACGCATTG,0.0857
3,AACGCGAT,0.104
4,ATTAGAAT,0.0758
5,CGCCAGAG,-0.382
6,CTGCAAAA,0.121
7,GATCGTAA,-0.103
8,CAGAACCA,-0.0272
9,CCGAGATC,-0.299
10,AAAAGATG,0.11
11,TATTAAAA,0.21
12,GAAGACTC,0.0295
13,GGGTGGAA,-0.28
14,GGTCGTAC,-0.144
15,CATTAGGA,-0.00514
16,AGGTAGAT,-0.00737
17,CCCTTCCG,-0.252
18,ATATATCC,0.0159
19,ACCGCGGT,-0.185
20,GGAAGTAC,-0.139
21,TACCAGTA,0.0471
22,CTATCCTC,-0.164

row,Sequence,PBM E-score
1,ATATCGGC,-0.196
2,ACCGACGA,-0.0177
3,GTCCCGAC,-0.135
4,GTGCTGAA,-0.0819
5,CATCGTCA,0.0766
6,GTGGGCCA,-0.31
7,GTTCAGCA,0.0297
8,GTCTGTCA,-0.0398
9,CCCTCTGA,-0.293
10,AGGAAAAG,0.305
11,AATGGATA,-0.0328
12,ACGCCCGC,-0.235
13,AACTTTCG,-0.0569
14,GATGACAC,0.283
15,CAACGATG,-0.034
16,ATCGAGGC,-0.117
17,ACAGCTCT,-0.141
18,CCCTTTAC,0.15
19,AAAAAGTA,0.0649
20,ACTAGAGT,0.0248
21,AATCTGCG,-0.181
22,AACAGTAA,-0.0414

row,Sequence,PBM E-score
1,CTCTAGAG,-0.177
2,ACTGTTAA,0.147
3,ACTGCGAC,-0.123
4,TATATTAA,0.211
5,ACACGTGA,0.273
6,ACCGCTAG,-0.124
7,AAACGAGG,-0.11
8,TAACTCGA,0.113
9,CAGTAGCG,-0.189
10,AACTTGTC,0.0707
11,CTAGGTAA,0.182
12,CGTCAGGA,0.102
13,GACTGAAC,-0.215
14,GATGTACA,0.259
15,GGTCCAAC,-0.303
16,AATCGCGG,-0.2
17,ACCTGGTG,0.0315
18,AAAGGAGT,0.0661
19,ACAGAATC,-0.108
20,AGATGTAT,0.133
21,CACCTGCC,-0.0248
22,AAGTCCTC,-0.234

row,Sequence,PBM E-score
1,CGATTATA,0.0112
2,CAAGCTCA,-0.115
3,AGCGGTGG,-0.249
4,AATCCTGT,0.159
5,CCCCCGAC,-0.325
6,CCTCACCG,-0.2
7,GTGTTCAA,0.225
8,GAGCCAGC,-0.0678
9,ACCGAGGT,-0.167
10,CGAATAAC,0.0678
11,ACTTTAAA,0.0778
12,AGACGTGG,-0.135
13,AGTGCTCA,-0.101
14,CTCTCTTA,0.0471
15,CGAAGTTA,-0.0312
16,AAAGCGGC,-0.0864
17,ACTTTTCC,0.0601
18,AGTGTTCC,-0.00943
19,GGGGACCA,-0.164
20,CCATGCAC,-0.157
